Measurements from PubChem BioAssay AID463173 (ICCB-Longwood Screening Facility, Harvard Medical School, 2010).
The whole screen tested about 52,000 compounds, of which about 4,300 (8.3%) were called active. Rule as the data show it: active = survival mostly below about 52% (no sharp cut-off); inactive = mostly above about 56%. This is one part of the list.

What follows are compounds tested on DeltatarO mutant (assay: S. aureus survival, RN4220 and DeltatarO strains – OD600, teichoic acid synthesis inhibitors, primary screen (AID 463173)). Conditions: S. aureus RN4220 wild type/DeltatarO growth, OD600, 18 h, active compounds read low, screened at 18.75 µg/mL (by protocol).

SMILES	survival
COc1cc(NC(=O)C2=CC(c3ccc(F)cc3)=NS(=O)(=O)N2C)cc(OC)c1OC	inactive: 73%
CCN(CC)c1cc(C)c2cc(NC(=O)/C=C/c3cc(OC)c(OC)c(OC)c3)ccc2n1	inactive: 61%
CCN(Cc1ccccc1)C(=O)C1CCN(S(=O)(=O)c2ccc3c(c2)CCCN3C(C)=O)CC1	inactive: 80%
O=C(CSc1nccn1Cc1ccc(F)cc1)Nc1nc2ccccc2s1	inactive: 83%
COc1ccc(CNC(=O)CCc2c(C)nc3c(c(C)nn3-c3ccccc3)c2C)cc1	inactive: 78%
CCOC(=O)c1c(C)n(-c2ccc(OC)cc2)c2ccc(OC(=O)COc3ccccc3)cc12	inactive: 55%
Cc1ccc(-n2ncc3c(Nc4cccc(Cl)c4)ncnc32)c(C)c1	inactive: 87%
O=C(Cn1nnnc1-c1ccccc1F)Nc1ccc(OC(F)(F)F)cc1	inactive: 84%
COc1cccc(/C=C/c2nc(C#N)c(N3CCC(C(N)=O)CC3)o2)c1	inactive: 75%
COc1ccc(Br)cc1S(=O)(=O)Nc1cc(-c2cn3ccccc3n2)ccc1C	active: 43%
Cc1ccc(C2C=C(c3ccccc3)Nc3nc(NS(=O)(=O)c4ccccc4)nn32)cc1 (stereo not given)	inactive: 68%
CN(Cc1ccccc1)C(=O)c1ccc(CSc2nc3cccnc3n2Cc2ccccc2F)cc1	inactive: 105%
COc1ccc(NC(=O)Cn2c(=O)n(CCC(=O)NCC3CCCO3)c(=O)c3cc(OC)c(OC)cc32)cc1 (stereo not given)	inactive: 72%
COc1ccccc1Nc1sc(C(=O)c2ccc(F)cc2)c(N)c1S(=O)(=O)c1ccc(C)cc1	inactive: 55%
CCc1cccc(-n2nnc(-c3nsc(NC(=O)c4cccc(OC)c4)n3)c2C)c1	inactive: 89%
Cc1cccc(CC(=O)N2CC(=O)Nc3ccc(Br)cc3C2c2ccc(F)cc2)c1 (stereo not given)	active: 43%
CNC(=O)CC(=O)NC	inactive: 103%
Cc1cc2c(cc1S(=O)(=O)Nc1cccc(C#N)c1)OCC(=O)N2	inactive: 93%
O=C(Cn1ncc2c3ccccc3n(Cc3ccccc3F)c2c1=O)NCc1ccccc1Cl	inactive: 78%
Nc1nc2ccccc2n1C(=O)Cc1ccccc1	inactive: 88%
COc1ccc(-n2nc(C(=O)N3CCCCC3C)c3c4ccccc4n(C)c3c2=O)cc1Cl (stereo not given)	inactive: 87%
Cc1coc2c(C)c3oc(=O)c(CCC(=O)NCCc4ccccc4F)c(C)c3cc12	inactive: 57%
O=C(c1cccnc1)N1CCN(CCN2C(=O)C3C4C=CC(C4)C3C2=O)CC1 (stereo not given)	inactive: 89%
CC(C)N(C(=O)CSc1cn(CC(=O)N2CCCCCC2)c2ccccc12)C(C)C	inactive: 68%
CCOC(=O)c1ccc(NC(=O)Cn2c(=O)cc(C)c3c(C)nn(-c4ccc(CC)cc4)c32)cc1	inactive: 71%
COc1ccc(CNC(=O)CN(C)S(=O)(=O)c2ccc3nc(C)sc3c2)cc1	inactive: 103%
COc1cccc(C(=O)Nc2ccccc2C(=O)OCc2cc(=O)n3c4c(sc3n2)CCCC4)c1	inactive: 57%
Cc1nn2c(C)c(C(=O)NC(C)c3ccccc3)cnc2c1-c1ccc(F)cc1 (stereo not given)	inactive: 128%

SMILES	survival
O=C1CC2CCCC(CN1)N2CC(=O)NCc1ccco1 (stereo not given)	inactive: 93%
COc1ccc(NC(=O)c2ccco2)cc1NC(=O)C(C)(C)Oc1ccc(Cl)cc1	active: 40%
CCOc1ccc(NC(=O)Cn2cnc3sc(C)c(S(=O)(=O)N4CCN(c5ccccc5OC)CC4)c3c2=O)cc1	inactive: 64%
CCC(=O)N1CCCc2cc(S(=O)(=O)N3CCC(C(=O)NCc4ccc(F)cc4)CC3)ccc21	inactive: 97%
O=C(c1ccc(Cl)cc1)C1CCN(C(=O)N2CCOCC2)CC1	inactive: 66%
Cc1cccc(C)c1-n1ncc(C(=O)O)c1C1CCN(C(=O)OC(C)(C)C)CC1	inactive: 88%
COc1ccc(-c2noc(-c3ccc(N4CCCC4)c([N+](=O)[O-])c3)n2)cc1OC	inactive: 59%
CCc1ccc(-n2nc(C)c3c(C(=O)N4CCN(c5ccccc5)CC4)cc(C)nc32)cc1	inactive: 94%
CNC(=O)CSc1nnc(-c2ccco2)n1CC1CCCO1 (stereo not given)	inactive: 113%
CCOc1ccc(CNC(=O)C2CCCN(c3nnc(C)c4c(C)n(-c5ccccc5)nc34)C2)cc1 (stereo not given)	inactive: 72%
CCOc1cc(C2NC(=O)c3c(sc4c3CCN(C)C4)N2)ccc1OC(=O)c1ccc(Br)cc1 (stereo not given)	inactive: 63%
COCCCNC(=O)CSc1nc2c(sc3ccccc32)c(=O)n1CCc1ccc(OC)c(OC)c1	active: -4%
O=C(Nc1ccc(C(=O)N2CCCCC2)cc1)C1CCCCC1	inactive: 86%
CN(C)CCNC(=O)Cn1ccc2cc(S(=O)(=O)N3CCCCCC3)ccc21	inactive: 82%
Cc1cccc(Cn2c(-c3cccc(Br)c3)nc3ccccc32)c1	inactive: 122%
CCOc1ccccc1NC(=O)CCc1c(C)nn(-c2ccc(N3CCCCC3)nn2)c1C	inactive: 74%
COc1ccc(C(=O)CSc2ncn(-c3ccccc3)n2)cc1OC	inactive: 55%
COc1ccccc1C(=O)NC1(C(F)(F)F)C(=O)Nc2c1c(=O)[nH]c(=O)n2-c1ccc(F)cc1 (stereo not given)	inactive: 190%
Cc1cc(Cl)ccc1OCC(=O)N(Cc1ccco1)Cc1ccccc1F	inactive: 78%
COc1ccc(CNC(=O)CSc2ncc3c(n2)-c2ccc(Cl)cc2N(Cc2ccccc2)S3(=O)=O)cc1	inactive: 49%
Cc1ccccc1C(=O)NCC1COc2ccccc2O1 (stereo not given)	inactive: 81%
COc1ccc(Cl)cc1NC(=O)c1cn(C2CCCC2)c(=O)c2c1c1ccccc1n2C	inactive: 72%
CC(=NCCN1CCNCC1)C1=C(O)CC(C)(C)CC1=O	inactive: 90%
Cc1cccc(N(CC(=O)Nc2ccccc2C(F)(F)F)S(=O)(=O)c2ccccc2)c1C	inactive: 104%
O=C(NCC(c1cccs1)S(=O)(=O)c1ccccc1)c1ccc(C(F)(F)F)cc1 (stereo not given)	inactive: 90%
COc1ccc(OC)c(C2CC(=O)Oc3c2c(=O)n(C)c2ccccc32)c1 (stereo not given)	inactive: 67%
Cc1ccc(S(=O)(=O)c2cn(Cc3ccccc3)c3cc(N4CCCCC4)c(F)cc3c2=O)cc1	inactive: 91%
